Like-named read-outs stand apart in the source and are kept apart here. No constants are given. Whether binding was seen depends on the method and setting. Binding seen in cells or lysates may run through a third protein. Some entries that bind do so weakly or less than the wild type. For part of these data: Sequences can lack the tags named with a protein.

Protein sequences, listed by entry. Tags and fused reporters are not part of them.
UniProt Q99683: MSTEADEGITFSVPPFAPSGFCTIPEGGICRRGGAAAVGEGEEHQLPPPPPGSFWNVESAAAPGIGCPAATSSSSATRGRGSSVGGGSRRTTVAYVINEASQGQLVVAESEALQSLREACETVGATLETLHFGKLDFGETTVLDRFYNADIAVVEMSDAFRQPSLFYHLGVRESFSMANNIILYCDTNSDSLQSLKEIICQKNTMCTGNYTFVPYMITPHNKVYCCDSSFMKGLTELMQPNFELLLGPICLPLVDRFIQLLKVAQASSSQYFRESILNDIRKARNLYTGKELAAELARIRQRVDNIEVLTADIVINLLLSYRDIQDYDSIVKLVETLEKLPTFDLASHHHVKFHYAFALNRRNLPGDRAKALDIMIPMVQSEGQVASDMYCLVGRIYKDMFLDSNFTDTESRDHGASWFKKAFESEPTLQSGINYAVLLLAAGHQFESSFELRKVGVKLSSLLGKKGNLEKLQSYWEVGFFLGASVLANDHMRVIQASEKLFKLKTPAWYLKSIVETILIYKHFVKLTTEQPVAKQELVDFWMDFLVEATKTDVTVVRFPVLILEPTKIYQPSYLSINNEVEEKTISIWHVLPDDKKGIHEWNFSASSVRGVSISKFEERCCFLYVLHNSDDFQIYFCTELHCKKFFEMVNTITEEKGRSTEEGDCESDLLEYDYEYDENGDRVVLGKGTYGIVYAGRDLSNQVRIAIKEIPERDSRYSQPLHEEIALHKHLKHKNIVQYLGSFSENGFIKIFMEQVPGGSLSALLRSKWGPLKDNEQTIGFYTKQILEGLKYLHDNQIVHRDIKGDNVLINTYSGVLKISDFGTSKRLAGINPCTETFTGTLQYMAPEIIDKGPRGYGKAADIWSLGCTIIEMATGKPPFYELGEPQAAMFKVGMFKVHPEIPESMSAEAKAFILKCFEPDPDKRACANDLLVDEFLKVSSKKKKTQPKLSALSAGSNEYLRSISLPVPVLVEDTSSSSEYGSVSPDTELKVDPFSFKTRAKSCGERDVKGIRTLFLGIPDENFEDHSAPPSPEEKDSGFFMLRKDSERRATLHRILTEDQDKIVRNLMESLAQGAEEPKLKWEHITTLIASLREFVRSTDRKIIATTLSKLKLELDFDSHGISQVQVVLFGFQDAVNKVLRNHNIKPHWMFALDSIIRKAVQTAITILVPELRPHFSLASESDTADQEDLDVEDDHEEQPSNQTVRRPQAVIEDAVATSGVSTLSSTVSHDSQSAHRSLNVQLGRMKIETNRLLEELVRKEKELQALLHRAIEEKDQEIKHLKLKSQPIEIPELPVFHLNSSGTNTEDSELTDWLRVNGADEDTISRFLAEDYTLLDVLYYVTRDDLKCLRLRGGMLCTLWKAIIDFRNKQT
UniProt O14733: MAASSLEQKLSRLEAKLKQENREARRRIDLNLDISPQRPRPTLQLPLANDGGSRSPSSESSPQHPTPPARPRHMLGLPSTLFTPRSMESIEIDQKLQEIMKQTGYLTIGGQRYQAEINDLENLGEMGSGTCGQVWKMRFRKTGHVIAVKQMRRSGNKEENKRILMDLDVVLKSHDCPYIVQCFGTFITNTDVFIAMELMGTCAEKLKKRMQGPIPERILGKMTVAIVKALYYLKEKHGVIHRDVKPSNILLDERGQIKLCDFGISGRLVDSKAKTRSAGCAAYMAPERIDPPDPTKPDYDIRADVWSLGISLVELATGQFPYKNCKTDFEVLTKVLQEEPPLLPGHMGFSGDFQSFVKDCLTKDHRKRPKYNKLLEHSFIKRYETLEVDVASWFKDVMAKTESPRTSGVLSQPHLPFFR
UniProt P45983: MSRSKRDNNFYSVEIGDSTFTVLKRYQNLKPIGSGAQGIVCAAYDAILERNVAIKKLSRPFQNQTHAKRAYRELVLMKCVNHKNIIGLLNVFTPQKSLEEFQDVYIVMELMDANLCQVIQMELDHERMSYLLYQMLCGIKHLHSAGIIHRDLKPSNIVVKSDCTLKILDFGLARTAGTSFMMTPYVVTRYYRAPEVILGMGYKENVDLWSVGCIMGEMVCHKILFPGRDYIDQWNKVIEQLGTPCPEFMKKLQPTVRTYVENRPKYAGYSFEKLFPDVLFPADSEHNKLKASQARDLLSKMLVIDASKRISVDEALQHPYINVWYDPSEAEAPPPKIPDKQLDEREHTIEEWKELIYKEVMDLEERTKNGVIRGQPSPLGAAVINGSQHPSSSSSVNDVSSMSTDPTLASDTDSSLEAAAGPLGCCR

In assay [1] the target is FLAG-ASK1 (UniProt Q99683). Kind of assay: co-IP; HEK 293 cells co-transfected with FLAG-ASK1 and GST-MKK7, then with HA-DUSP22 plasmid (0, 0.75, 1.5, 3 μg); lysate precipitated with anti-FLAG M2 affinity gel; immunoblot with anti-HA, anti-GST or anti-FLAG.
In assay [2] the target is T1, FLAG-DUSP22 WT (dual-specificity phosphatase 22) (UniProt Q9NRW4).
T1 sequence: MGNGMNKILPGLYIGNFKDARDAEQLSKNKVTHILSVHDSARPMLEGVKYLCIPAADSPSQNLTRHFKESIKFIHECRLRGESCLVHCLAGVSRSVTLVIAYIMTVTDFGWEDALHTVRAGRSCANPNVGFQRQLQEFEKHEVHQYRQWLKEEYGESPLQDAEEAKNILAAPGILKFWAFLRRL
Kind of assay: co-IP; HEK 293 cells co-transfected with a FLAG-tagged and an HA-tagged protein, lysed after 48 h in PTP lysis buffer (20 mM Tris-HCl pH 7.5, 150 mM NaCl, 1 mM EDTA, 0.5% Triton X-100, 0.5% IGEPAL, 10% glycerol, 1 mM DTT); lysate precipitated with anti-FLAG M2 affinity gel 16 h at 4°C; immunoblot with anti-HA.

A further assay addresses T2, FLAG-DUSP22 C88S (UniProt Q9NRW4).
T2 sequence: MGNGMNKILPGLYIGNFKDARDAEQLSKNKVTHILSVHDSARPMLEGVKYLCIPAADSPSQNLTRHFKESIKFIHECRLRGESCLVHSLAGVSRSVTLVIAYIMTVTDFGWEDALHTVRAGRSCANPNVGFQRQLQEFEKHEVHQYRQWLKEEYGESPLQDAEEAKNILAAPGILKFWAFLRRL
The description is as above.

The target of assay [3] is FLAG-ASK1 (UniProt Q99683). The assay is described as above.
Assay [4] has as its target T1, FLAG-DUSP22 WT (dual-specificity phosphatase 22). The description is as above. This is another data set of the same source.

Turning to “GST-MKK7 (from UniProt O14733 1-419) (enzyme)”, the binding result in the assay with FLAG-ASK1 [1] is recorded as “binds”.

“HA-JNK1 (c-Jun N-terminal kinase 1) (from UniProt P45983 1-427) (enzyme)”: the binding entry (in assay [2]; with FLAG-DUSP22 C88S) was “binds” throughout.

In the case of “HA-JNK2 (c-Jun N-terminal kinase 2) (from UniProt P45984 1-424) (enzyme)”, the binding result (in assay [2]; in the assay with FLAG-DUSP22 C88S) was “binds” each time.

On to “HA-MKK7 (MAPK kinase 7) (from UniProt O14733 1-419) (enzyme)”, for which the binding entry (in assay [2]; with FLAG-DUSP22 C88S) was “binds” each time.

B1: HA-DUSP22 WT (enzyme, UniProt Q9NRW4 1-184)
chain: MGNGMNKILPGLYIGNFKDARDAEQLSKNKVTHILSVHDSARPMLEGVKYLCIPAADSPSQNLTRHFKESIKFIHECRLRGESCLVHCLAGVSRSVTLVIAYIMTVTDFGWEDALHTVRAGRSCANPNVGFQRQLQEFEKHEVHQYRQWLKEEYGESPLQDAEEAKNILAAPGILKFWAFLRRL
For the molecule B1, in the assay with FLAG-ASK1 [3], the binding result is “binds”.

B2: HA-MKK4 (enzyme, UniProt P45985 1-399)
chain: MAAPSPSGGGGSGGGSGSGTPGPVGSPAPGHPAVSSMQGKRKALKLNFANPPFKSTARFTLNPNPTGVQNPHIERLRTHSIESSGKLKISPEQHWDFTAEDLKDLGEIGRGAYGSVNKMVHKPSGQIMAVKRIRSTVDEKEQKQLLMDLDVVMRSSDCPYIVQFYGALFREGDCWICMELMSTSFDKFYKYVYSVLDDVIPEEILGKITLATVKALNHLKENLKIIHRDIKPSNILLDRSGNIKLCDFGISGQLVDSIAKTRDAGCRPYMAPERIDPSASRQGYDVRSDVWSLGITLYELATGRFPYPKWNSVFDQLTQVVKGDPPQLSNSEEREFSPSFINFVNLCLTKDESKRPKYKELLKHPFILMYEERAVEVACYVCKILDQMPATPSSPMYVD
With B2, the binding entry in assay [4] was “no binding”.

For the origin of these results see PMC5053508.
